Variants at the background level are over-represented here.
B1: tRNA (parent)
chain: CUCUCGGUAGCCAAGUUGGUUUAAGGCGCAAGACUUUAAUUUAUCACUACGAAAUCUUGAGAUCGGGCGUUCGACUCGCCCCCGGGAGAUUUUUUCCUCGAGCAA

Variants of: B1
Assay: nonsense suppression (GFP-seq) (ratio to wild type); higher = more function; SUP4oc tRNA, yeast GFP reporter sort-seq
How it was run: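 Nonsense suppression (GFPSEQ) is the median GFP/RFP ratio of each sorting bin, weighted by the variant's estimated share of cells in that bin and expressed relative to the unmutated parent tRNA. Yeast strains carried genome-integrated variants of an ochre-suppressor tRNA from a library with ~3% random mutations, plus a galactose-driven GFP ochre reporter and RFP, and were grown in raffinose/galactose medium containing 80 mg/L adenine. Cells were sorted into GFP/RFP bins, each bin was Illumina-sequenced (phred ≥30), and variants were kept only with ≥100 reads and ≥30 cells.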

Nonsense suppression, ≤ 0.026:
C3U A13G U17G C64U U71G C81A G84U
C3G G25A G84U
C3U U17A A23U
C3A G28C A54U U55A U57C C68G U76A
C3U A60C C82A
C3A G66A
C3G G25U C64A
C3U C27G G66C
C3G U57C C75A G78A
C3A G10U U35G
C3U A31G U55G
C3U A13U C34G
C3U G25C
C3G G6C U20A A23U A30U
C3U G61C A74C
C3U U16G G18U U57C
C3U C5U U8C C79G
C3U U8G C27G U58A
C3G C12A G59A G84A
C3U C34G C64G
C3U G32U A89U
C3U G15A G67C C79A
C3A G26A G86C
C3U G10A C12G G61A U70A U71A G73C
C3U A24C G26C
C3G A62G A74G C75A
C3U C64U G67U
C3U A31U
C3U C27U U35A U71G
C3U G61A C77G
C3A U21A C29G C68A G78C
C3G U20A A54G U70A
C3U G6A A13C G85A
C3G C56U G66C G88A A89G
C3U A24C C81G
C3U A60C C68U A74C
C3A U21A A33C G84U
C3U A9C A31C C34G
C3A G66A C80G G86C
C3A U57C G61U
C3G A14C G26A
C3U G7C A30U G61U
C3G G73A C79U A87C
C3U G26A A33G U76A G78A
C3G C29U A87G
C3G C29U A87U
C3G A30G U58A
C3G C75A
C3U G18C U70G C75G
C3U C81A A87G
C3U C12G U16C U21G C68U
C3A U58G C79A
C3A C68A
C3U G18A G28U G86A
C3A G84A
C3A U22G U35G G67C G69A U71G
C3G G15C
C3A U20G G28U U57C G61C A74U G78C C79A
C3U C5U A62G
C3U C68G C82G
C3A C56U A62C
C3G A31C G59A A87U
C3U G85U
C3G A30G C34G U55G G69C C79A
C3A C72A
C3U C29A
C3G C12U A54U
C3U C27U A33G A60U C68A
C3U G15C G18C U20G G25U C56G G88A
C3G U8A G25A
C3G A30G C34A G78C
C3A U4C G10C A30C
C3G G25C U71G G73U
C3G U4G A24C
C3U G15A C34U C75G
C3U C11U A24U C29U C34A A62G
C3A U17C U35G G88U
C3A C64A G69U
C3A G65C
C3G G15A G19C A54U U57G A74G
C3G A9G G59U
C3U C12A U21G U22C G65A A87G
C3U G6U U22G C81G
C3G A23U C27U A54G
C3G C27A U57A
C3U C83U
C3U C83A
C3U A14C G28A A74U
C3U G7U G66C
C3G U55G
C3A U57A C80U A89U
C3G G28A U55C G86U G88U
C3U A31G U63C G78U
C3A U21C
C3G G67C
C3U G19U
C3G A13U U16C A24U U55A G86C
C3A G15C G26A
C3U A23U G66A C81G
C3U C12G G61A
C3G U76C C82A
C3G U63G C77A
C3U G66U
C3G A24C A31C
C3G A14C U35C A60G
C3A U71G C79G
C3G U63C U76C
C3U G59C A60U
C3U A54C G88U
C3U G67A
C3G U58G U76G
C3A G7A G28A A31G
C3A G28C C34G U58C G86C
C3U G19U U58G
C3A U17A
C3U G78C A89U
C3A G15U C72G
C3G C5U
C3A G19U A62G
C3U G7C A23G C83U
C3G C5U U58G C72G
C3G G66A
C3G A23C C72G C80U
C3U C5G U22C G65A G66C
C3A G67C U70C G78U
C3U G19U A62U
C3U G19U A62C
C3G G10C C11A A62G U63A
C3U C81G
C3U G25C G73A C81U
C3U G59C
C3A G6A
C3A U22A G32C C72G
C3G G6U U8A G10C A24G A62C
C3A U35G G61A C77G
C3U U16G C56G G69U
C3U A33G A60G
C3G G18U
C3A U20A A87G
C3U U8G A54U U58G C83U
C3G U58C G66C A89C
C3G C5A C12U G15U U58A
C3U G6A C83G A89C
C3A U17C A62G
C3A U58G U76A
C3U A31C G88C
C3G A23U C77G
C3U C5A G61C U70C
C3U C11U A13C
C3U A33G C34G
C3U C5A G10U A13C G28A U58G A89G
C3U C5A G10U A13C G28A U58G A89U
C3A U8G A13G
C3A U21G A24U
C3A U21C C68G
C3A G15U U16G G18A G19C G26U
C3A G88C
C3A G88A
C3G U4G G26A
C3G A9U C27U G59U G73A
C3A U4A A14G G73A
C3G C11U C29G
C3G A60U
C3G C5G G6U A24U C72G A74C C83A
C3G A23U C72A
C3U U8G A30G G59C U63C G73U
C3U A89U
C3G G6A G19U A31U G66U G69C
C3A U4A U16A C68G G88U
C3G G6A C83G
C3U G18C A30C G61U C79G G84U
C3U A30U A33G
C3U G7U U21A U55A A74U G86C
C3A G61A
C3U G10C U57C
C3U U4A G25C
C3A G15C U58G
C3U A31G G86C
C3U A23U A62G G69A
C3G G67A G84A
C3G U4A U20C A23C U71C G86A
C3U A14G U21C A54G G66C G86U
C3U A14U A33U C34G G65U G66A
C3A U20A
C3G G67C G73A C77A
C3U A13C U16C C29U A31C G61U
C3U C27G G61A G69C
C3U G25U G66U
C3U C5A G10C G86A
C3U A60C C83G G86A
C3U A9G A24G G65C
C3A G59U
C3A G59C
C3A G73U
C3U G25U A33C C72G
C3A U55A U57G A60G C75G
C3U A24G C29U G85U A87G
C3A G26A U55C
C3U G28A A31U
C3U C12U G67C G78C
C3U G7C
C3A G32C U70C
C3G G61C G65A
C3U G25U C80U
C3U G26A C34A
C3G U55G C83U G84C
C3U G26C G32U U35G U76G G85U
C3U G7A C27G A30U A31U
C3G C11G
C3U G6U A23U G26U C77U
C3A U8G G88A
C3U G32U G78A
C3U C12G C34G
C3A U57A
C3G U20C U57C
C3U A33C
C3U A33G
C3U G84C
C3G C12U U16C U55G
C3G G6A A74C C82U A87C G88A
C3A U20C A74U
C3A G86C
C3G C5U A23G
C3U A13C U16A G59U C77U
C3U C80G
C3G C82A
C3A C82A
C3G
C3G G61C U70A A87U
C3U G26C C27U C68U G84A G85C A89C
C3U G65A
C3A U55C U63A G65A
C3U G10C A62C U71C
C3U C34A A87G
C3A U4C U21G G85U
C3U G25U A33C C72G A87C
C3G U22C
C3U A23U U35C C56U C81U
C3U G10U C56U U71G A74U
C3G A62C
C3G G6U A9C U58A G85A
C3A G19U G25A
C3U A30G G73A
C3G U71G C83A A87U
C3U A14U G15A A74U
C3U A23U A30C
C3A U63C G69A
C3U A60G U71A
C3G U4C G7U A13C
C3A U22C G78A
C3U C12U C82G
C3U U4G G25U C27G
C3A G18C C83A
C3U U8G A24C A31C A60C C80U
C3U A33G C80A
C3U U8C C34G G84C
C3G A9U U55G
C3G G7C U55A
C3U A14G U21C G67C
C3A C72G C81G
C3G A24U A60U U63C
C3G U57C G66A C77A
C3A G69C
C3U C12G C82G G86U
C3G G26U
C3G U57A
C3U G7A U17G
C3G U8C A14U C29U
C3G G10U G15C U70G G78A C79U C83U
C3A G6U G32U C56G
C3U A54C U57A
C3A G7C
C3A U20C C34A U76A
C3U C5U U21G U57C
C3U U4C C27A
C3G A14G U16C U35G G88A
C3G U57G G59A C64U
C3G G6U C34A A62U G86U
C3A U8A G32U A62C
C3A G26A G28U U58G
C3A U35G C81A G88A
C3U U4G A23G A24C G61A
C3A C72G C80U C83G G86A
C3U G18U G25C
C3A U8C
C3U A54G U58G
C3A G66C C75G
C3G U16C U71C
C3U C72G
C3G C79G
C3G C34A
C3G C68U G88A
C3G A30C A54U
C3U G86U
C3G C12G G18C A31G G78A
C3U A14G C80G
C3G U63G
C3G C56A C81A
C3U G6C A9U A13G A23G A60G G69C
C3U G25U A54C U71A
C3G G15U A30C C82U
C3G G26U G65A U76C
C3G U76A
C3G A9C G18C A31U A54U A60U C68U U71C
C3A U20G A30C A33G G69C G73C
C3U C34A A62C G67A G84U
C3U U8G U76C
C3A U57G G69A
C3G C27G
C3G C27A
C3G A31G G65C C75G
C3G U8A A31G C81A
C3G U16G G66A
C3A U35A
C3U G19U U71A
C3A G6A G65C

Nonsense suppression, 0.0608:
C3U G78A

Nonsense suppression, 0.194:
C3U A13U
C3U U17A

Nonsense suppression, 0.0575:
C3U A24C

Nonsense suppression, 0.198:
C3U G61A

Nonsense suppression, 0.0343:
C3U G6U

Nonsense suppression, 0.0541:
C3G A13U

Nonsense suppression, 0.439:
C3U A13G C34G

Nonsense suppression, 0.859:
C3U U4C

Nonsense suppression, 0.184:
C3U A13C

Nonsense suppression, 0.0677:
C3G A54C

Nonsense suppression, 0.22:
C3U U16G

Nonsense suppression, 0.152:
C3G U55C

Nonsense suppression, 0.0292:
C3G G61C

Nonsense suppression, 0.739:
C3U

Nonsense suppression, 0.0776:
C3A G78A

Nonsense suppression, 0.164:
C3U G61C

Nonsense suppression, 0.195:
C3U A9G

Reference: the RNAGym collection of RNA variant scans (doi:10.1101/gad.245936.114)
